Paper PMC4336329 (PLoS ONE, 2015)
Screen size: about 310,000 compounds; about 14,000 (4.5%) showed an effect of 50% or more. Effects have a minus sign here. The list shows a part of the results.

The molecules below were run against human ether-à-go-go-related gene (hERG) potassium channel (human, UniProt Q12809) (assay: primary screen, population patch clamp on CHO cells stably expressing hERG).
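Also: peak tail current of the secondary pulse compared with the same well before compound.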

Sequence of human ether-à-go-go-related gene (hERG) potassium channel (Q12809 whole entry, looked up): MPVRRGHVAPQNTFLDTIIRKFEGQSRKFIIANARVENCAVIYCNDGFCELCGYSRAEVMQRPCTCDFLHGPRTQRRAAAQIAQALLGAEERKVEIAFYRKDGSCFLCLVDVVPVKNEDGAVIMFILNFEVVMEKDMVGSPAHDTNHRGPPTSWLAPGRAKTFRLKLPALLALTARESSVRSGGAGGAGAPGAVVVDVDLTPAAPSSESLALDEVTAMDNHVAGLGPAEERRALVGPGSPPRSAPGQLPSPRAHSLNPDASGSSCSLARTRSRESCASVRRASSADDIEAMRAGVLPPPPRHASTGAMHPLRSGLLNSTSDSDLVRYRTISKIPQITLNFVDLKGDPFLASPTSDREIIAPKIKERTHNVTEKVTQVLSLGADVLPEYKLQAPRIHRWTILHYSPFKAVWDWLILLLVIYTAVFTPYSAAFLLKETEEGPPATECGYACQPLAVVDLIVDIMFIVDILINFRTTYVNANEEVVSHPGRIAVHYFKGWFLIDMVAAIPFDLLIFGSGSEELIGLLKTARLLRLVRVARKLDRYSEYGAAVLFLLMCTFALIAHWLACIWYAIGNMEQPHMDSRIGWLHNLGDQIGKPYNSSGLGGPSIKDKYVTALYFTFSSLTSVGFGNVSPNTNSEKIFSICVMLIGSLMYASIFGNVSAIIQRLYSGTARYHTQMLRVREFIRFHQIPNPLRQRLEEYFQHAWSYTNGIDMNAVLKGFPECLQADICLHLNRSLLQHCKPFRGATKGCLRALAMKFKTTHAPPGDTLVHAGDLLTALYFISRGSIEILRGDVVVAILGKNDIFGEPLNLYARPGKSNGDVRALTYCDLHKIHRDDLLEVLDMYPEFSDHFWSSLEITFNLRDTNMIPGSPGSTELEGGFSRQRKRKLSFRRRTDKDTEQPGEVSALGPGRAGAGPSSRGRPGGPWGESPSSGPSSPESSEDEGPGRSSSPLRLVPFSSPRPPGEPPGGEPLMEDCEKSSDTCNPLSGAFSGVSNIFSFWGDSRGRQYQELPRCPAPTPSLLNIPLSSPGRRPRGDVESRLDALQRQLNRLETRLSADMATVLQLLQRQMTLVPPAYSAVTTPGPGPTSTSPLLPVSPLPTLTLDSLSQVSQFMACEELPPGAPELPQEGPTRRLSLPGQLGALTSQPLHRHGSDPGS

Row | Compound | hERG current change (%, negative = inhibition) at 10uM [%]
1 | COc1ccc(C(=O)Cn2nc(CNc3ccc(Br)cc3)[n+]3c2CCCCC3)cc1.[Br-] | 15.4
2 | O=C1c2cccc3cccc(c23)C(=O)N1c1nccs1 | -2.49
3 | CC(C)(C)OC(=O)NCc1ccc(CNC(=O)c2[nH]cnc2C(=O)N[C@@H](Cc2ccccc2)C(=O)OCc2ccccc2)cc1 | -13.3
4 | O=C(O)c1cccc(NC(=S)NC(=O)c2ccc(-c3ccc(Cl)cc3)o2)c1 | 16.5
5 | O=C(COC(=O)c1cc([N+](=O)[O-])ccc1N1CCOCC1)NC1CCCCC1 | -30.7
6 | CC(C(=O)NCC1(c2ccccc2)CCOCC1)N1CCOCC1.Cl (stereo not drawn) | 47.6
7 | O=S(=O)(c1ccccc1)N1CCN(CCc2ccccc2)CC1 | 14.2
8 | CC(C)c1ccc(NC(=O)CCNS(=O)(=O)c2ccc3[nH]c(=O)oc3c2)cc1 | 19.9
9 | O=C(NCCc1cccc(Cl)c1)c1cc2ccccc2oc1=O | 12.3
10 | O=C(NC(=S)Nc1ncccn1)c1ccccc1Cl | 11.8
11 | O=C(NCCc1c[nH]c2ccccc12)C(F)(F)F | 3.79
12 | CCn1c(SCC(=O)NCc2ccco2)nc2c(c1=O)SC(C)C2 (stereo not drawn) | 1.54
13 | CC(OC(=O)CNC(=O)c1sc2ccccc2c1Cl)C(=O)NC1(C#N)CCCCC1 (stereo not drawn) | -22.8
14 | O=C(NCCCc1ccccc1)c1ccncc1 | -15.2
15 | CC(=O)[C@@H]1[C@@H]2C(=O)N(C3CCCCC3)C(=O)[C@@H]2C2c3ccccc3C=CN21 (stereo partly drawn) | 0.0132
16 | Cc1ccc(S(=O)(=O)CCC(=O)NCCc2ccccc2)cc1 | 22.2
17 | O=C(NCSC1=NCCS1)c1ccccc1 | 6.71
18 | Cc1cnc(NC(=O)c2c(Cl)cnn2C)s1 | 19
19 | COc1ccccc1C(=O)CSc1cccc[n+]1[O-] | 9.12
20 | COc1ccc(C2C3C(=O)N(Cc4ccccc4)C(=O)C3ON2c2ccccc2)c(OC)c1OC (stereo not drawn) | 1.47
21 | Cc1cc(NC(=O)c2cc(-c3cccs3)on2)no1 | -4.68
22 | COc1ccccc1CNC(=O)C1Cc2cc(S(=O)(=O)N3CCCC3)ccc2N1C(C)=O (stereo not drawn) | 11

Row | Compound | hERG current change (%, negative = inhibition) at 10uM [%]
23 | O=C(COc1ccccc1)NCCSc1ccccc1 | -5.26
24 | CC(C)=CC(=O)OCC(=O)Nc1ccc(F)cc1Cl | -0.186
25 | COc1ccc(C(=O)Nn2c(SCC(=O)c3ccccc3)nc3ccccc3c2=O)cc1 | -15.9
26 | CCN(CC)CCNC(=O)c1ccc(Cl)c(S(=O)(=O)N2CCCCCC2)c1.Cl | -67.4
27 | CC(C)NC(=O)C(=O)Nc1cc2c3c(c1)CCC(=O)N3CCC2 | 11.4
28 | CN(c1ccc(OCC(=O)OCC(=O)Nc2cccc([N+](=O)[O-])c2)cc1)S(=O)(=O)c1ccc(F)cc1 | -5.67
29 | COc1ccc(C2=NS(=O)(=O)N(C)C(C(=O)NC(C)c3ccccc3)=C2)cc1 (stereo not drawn) | -23.8
30 | Cc1nc(Oc2ccccc2)c2oc3ccccc3c2n1 | 13.3
31 | O=C(Cc1c[nH]c2ccccc12)NCc1ccc2c(c1)OCO2 | 19.4
32 | CCC1(CC)NC(=O)N(CC(=O)OCC(=O)NC(=O)c2ccc(Cl)cc2)C1=O | -6.39
33 | COc1ccc(/C=N/NC(=O)c2cccc([N+](=O)[O-])c2)c2ccccc12 | 16.2
34 | Cc1c(Br)c(-c2n[nH]c(=S)n2Cc2ccco2)nn1C | 13.4
35 | CCc1noc(N)c1C(=O)Nc1ccc(F)c(Cl)c1 | 5.45
36 | O=C(COc1ccc(/C=N/NC(=O)CSCc2ccc([N+](=O)[O-])cc2)cc1)NCc1ccco1 | -23.7
37 | Cc1cccc(NC(=O)c2ccc(OCc3c(C)noc3C)cc2)c1 | -4.24
38 | COc1ccc(/C=C/CN2CCN(CC(C)C)C(CCO)C2)cc1 (stereo not drawn) | -52.2
39 | O=C(CCSCCC(=O)NCc1cccs1)NCc1cccs1 | 6.75
40 | Cc1csc(NC(=O)CSc2nnc(C)c(=O)n2N)n1 | 18.2
41 | Cc1c(C(=O)N2CCCCC2)sc(NC(=O)C2CC2)c1C#N | -2.5
42 | COc1ccc(C(=O)NCCc2nnc3ccc(SCC(=O)N4CCCCC4)nn23)cc1 | 5.54
43 | CCCSc1nnc(NC(=O)CSc2nc3[nH]c(=O)cc(O)c3s2)s1 | 12.5
44 | COC(=O)c1cc(-c2ccc(OC)cc2F)nc2nc(SC)[nH]c(=O)c12 | 15.1

Row | Compound | hERG current change (%, negative = inhibition) at 10uM [%]
45 | O=C(NC(=S)Nc1ccc(CN2CCOCC2)cc1)c1ccc(-c2cccc(Cl)c2)o1 | 7.11
46 | O=C(NCCc1ccncc1)C(F)(F)F | 18
47 | COC(=O)c1ccc(N2C(=O)CC(SCC(=O)Nc3ccc(OC)cc3)C2=O)cc1 (stereo not drawn) | 2.95
48 | O=C(COC(=O)c1n[nH]c(=O)c2ccccc12)NC1CCCCC1 | -0.0274
49 | Cc1cc(C)n(Cc2ccccc2)c(=O)c1S(=O)(=O)c1ccccc1 | 2.93
50 | O=C(COC(=O)c1ccc(Cl)nc1)Nc1ncc(Cl)cc1Cl | 6.21
51 | CC(=O)N1CCN(C(=O)c2ccc(-n3c(C)ccc3C)cc2)CC1 | -1.54
52 | CC1CCN(S(=O)(=O)c2ccc(F)c(C(=O)O)c2)CC1 | 4.7
53 | O=C(CSc1nnc(Nc2ccccc2)s1)NN1C(=O)NC2(CCCCC2)C1=O | -1.61
54 | CC1CN(c2ccc([N+](=O)[O-])c(NCCOc3ccc(Cl)cc3)c2)CC(C)N1 (stereo not drawn) | -47.9
55 | Cc1cccc(/C=N/NC(=O)Cc2cccs2)c1 | 2.55
56 | Cc1n[nH]c(=O)c2c(NC(=O)CSc3nn(-c4ccccc4)c(=S)s3)oc(C)c12 | -1.58
57 | O=C(CSc1ncn[nH]1)NNC(=O)c1ccccc1 | -8.54
58 | Cl.O=C(CCCN1CCOC(c2ccccc2)C1)c1ccc(F)cc1 (stereo not drawn) | -60.7
59 | C[C@H](NC(=O)c1[nH]cnc1C(=O)Nc1cccc(Cl)c1)c1ccccc1 | 16.3
60 | O=C(C1CCN(S(=O)(=O)c2cccs2)CC1)N1CCCCCC1 | -5.92
61 | COc1ccccc1N1CCN(C(=O)CSc2nc3ccccc3[nH]2)CC1 | -7.19
62 | COC(=O)c1ccc(NC(=S)NC(=O)c2cc(-c3ccccc3)nc3ccccc23)cc1 | 10.8
63 | CC(CCCC(C)(C)O)NCCO (stereo not drawn) | 12.1
64 | CCCOc1ccc(CNC(=O)CCC(=O)n2ncc3cc(C)ccc32)cc1 | 9.25
65 | Cc1cccc(NC(=O)c2cccc(S(=O)(=O)N3CCc4ccccc4C3)c2)n1 | -15.1
66 | C=CCn1c(CCNC(=O)c2cccs2)nnc1SCC(=O)c1cccc([N+](=O)[O-])c1 | -33.6

Row | Compound | hERG current change (%, negative = inhibition) at 10uM [%]
67 | CN(C)CCn1c2c(c(SCC(=O)N3CCc4ccccc43)nc1=O)CCCC2 | -44.7
68 | CCOc1ccc(CN(C)c2ccc(S(=O)(=O)N3CCN(C)CC3)cc2[N+](=O)[O-])cc1OC | -18.8
69 | COc1cccc(CNC(=O)Cc2ccc(NC(=O)C3=C(C)OCCS3)cc2)c1 | 3.87
70 | CCC(=Nc1cc(OC)ccc1OC)c1c(O)[nH]c(=O)[nH]c1=O | 4.56
71 | O=C1Nc2ccccc2/C1=C/C(=O)c1cccs1 | 1.73
72 | COCCNC(=O)/C(C#N)=C/c1ccc(N2CCOCC2)o1 | 9.87
73 | CCCN(CCC)CCCNC(=O)CCNS(=O)(=O)c1ccc(Br)cc1 | -21.1
74 | CC(=O)NC(Cc1ccccc1F)C(=O)NC1CCN(C(=O)c2cnccn2)CC1 (stereo not drawn) | 10.6
75 | NC(=O)c1ccsc1NC(=O)COC(=O)Cc1c[nH]c2ccccc12 | -1.19
76 | O=Cc1cn(Cc2ccc([N+](=O)[O-])cc2)c2ccccc12 | -38.9
77 | O=C(NC(CC(=O)N1CCCC(C(F)(F)F)C1)c1ccccc1)c1ccccc1Cl (stereo not drawn) | -8.81
78 | O=c1[nH]c(CSc2nnc(-c3ccccc3)n2-c2ccccc2)nc2ccccc12 | 18.1
79 | Cc1ccc(NC(=O)N2CCCC2C(=O)NCc2ccc3c(c2)OCO3)cc1 (stereo not drawn) | -2.33
80 | CC(Sc1nnnn1C)C(=O)Nc1ccc2c(c1)OCCO2 (stereo not drawn) | 21.5
81 | CCC1(C)Cc2ccccc2C(=S)N1 (stereo not drawn) | 10.1
82 | CCOC(=O)c1sc(NC(=O)c2ccc(OC(C)=O)cc2)nc1C | 13.3
83 | CC1=Nc2ccccc2/C1=C/c1sc(=O)n(CC(=O)N2CCCC2)c1O | 13.9
84 | COc1ccccc1CNC(=O)CN(c1cccc([N+](=O)[O-])c1)S(C)(=O)=O | -4.16
85 | COc1ccc(N2CC(C(=O)Nc3ccc(S(=O)(=O)N4CCOCC4)cc3)CC2=O)cc1 (stereo not drawn) | 13.4
86 | COc1ccc(N=C2C(=O)Nc3c(C)cccc32)cc1 | -3.27
87 | COc1ccc(N(C)C(=O)c2cc3c(s2)-c2ccc(Cl)cc2S(=O)(=O)C3)c(OC)c1 | -58.5
